# Test results reported in PubChem BioAssay AID686978 (National Center for Advancing Translational Sciences (NCATS), 2013).
# Out of some 420,000 compounds screened, about 64,000 (15%) were called active. The shares of active, inactive and inconclusive entries below differ from those in the screen. Calls come from the whole dose curve; as a rule, active = well fitted inhibition curve with a large enough effect; inconclusive = small, poorly fitted or top-dose-only effect; inactive = flat fitted curve, though single readings scatter. Potencies of inconclusive entries are left out as doubtful fits.
# Test: qHTS for Inhibitors of human tyrosyl-DNA phosphodiesterase 1 (TDP1): qHTS in cells in absence of CPT; note: nearly all actives have a fitted effect of over 55% in size
# Conditions: DT40 Tdp1-/- hTDP1 cells, no CPT, ATP luminescence, 48 h; activity change, negative = growth inhibition: at 46.2 µM (top of the series) unless noted
# Summary of the method: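 Cells were dispensed at 400 per well, compounds added by pin tool, plates incubated ≥48 hr at 37 °C, then CellTiter-Glo added for 30 min at room temperature before luminescence reading. Line: DT40 Tdp1-/- complemented with hTDP1; camptothecin omitted.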
# % is set by controls: 0 for no effect and ±100 for the full control effect; potency is the fitted concentration of half-maximal effect; tags give direction and shape of the fitted curve.
SMILES,Potency,"activity change, negative = growth inhibition"
CC1CCc2c(C(=O)NCc3cccnc3)csc2C1 (configuration not stated),"inconclusive [inhibitor, single point]",–
S=C(c1ccc(N2CCOCC2)cc1)N1CCOCC1,inactive,–
O=C(COCc1ccccc1)N[C@@H]1c2ccccc2CC[C@@H]1OCc1ccccc1,"inconclusive [inhibitor, single point]",–
CCC(C)COC(=O)C(C#N)c1nc2ccccc2nc1N1CCCCC1 (configuration not stated),active: 16.4 µM,–
COc1ccc(C(=O)NNC(=O)c2cc3ccccc3cc2O)cc1,active: 13 µM,–
COc1ccc(S(=O)(=O)N2CCN(C(=O)c3c(-c4ccccc4)noc3C)CC2)cc1,"inconclusive [inhibitor, single point]",–
C[C@@H]1CN([C@@H](C)CO)C(=O)c2cc(NC(=O)CCC(F)(F)F)ccc2O[C@H]1CN(C)S(=O)(=O)c1ccc(Cl)cc1,inactive,–
Brc1ccc2nc(C3CCCCC3)c(Cc3ccccc3)n2c1,"inconclusive [inhibitor, single point]",–
Cc1ccc(Nc2c(-c3ccc(C)cc3)nc3ccc(C)cn23)cc1,"inconclusive [inhibitor, full curve]",–
COc1ccc(N=C2S/C(=C\c3cc(C)n(C)c3C)C(=O)N2C)cc1,active: 6.51 µM,–
Cc1ccc(S(=O)(=O)c2nc(-c3ccc(F)cc3)oc2SCC(=O)c2ccccc2)cc1,"inconclusive [inhibitor, single point]",–
Cc1[nH]c(=O)[nH]c(=O)c1S(=O)(=O)N1CCCC(C(=O)NCc2ccco2)C1 (configuration not stated),inactive,–
COc1cc(OC)nc(C(NC(=O)C2CCN(Cc3ccc(Oc4ccccc4)cc3)CC2)c2ccccc2C)n1 (configuration not stated),"inconclusive [inhibitor, single point]",–
COc1ccc(N2C(=O)C3CCCN3C2c2ccccc2)cc1 (configuration not stated),inactive,–
COc1cccc(-n2c(SCC(=O)N3CCCc4ccccc43)nc3c([nH]c4ccccc43)c2=O)c1,"inconclusive [inhibitor, single point]",–
O=CN1CCCN(Cc2nc(-c3cccc(Cl)c3)no2)CC1,inactive,–
COc1cc(NC(=O)NC(C)c2c(-n3cccc3)sc3c2CCN(C)C3)cc(OC)c1 (configuration not stated),active: 23.1 µM,–
C=CCc1cccc(CNc2nc3ccccc3n2CC)c1O,"inconclusive [inhibitor, single point]",–
CC(C)C(C(=O)NC1CCCC1)N(CC1CCCO1)C(=O)CNS(=O)(=O)c1ccccc1 (configuration not stated),inactive,–
CCC(C)N1CCN(C(=O)C2CCN(S(=O)(=O)c3c(C)noc3/C=C/c3ccco3)CC2)CC1 (configuration not stated),"inconclusive [inhibitor, single point]",–
Clc1cccc(Cl)c1CNc1ccc(N2CCCC2)cc1,active: 16.4 µM,–
CC12CCC(C(=O)N(Cc3ccccc3)Cc3ccccc3)(OC1=O)C2(C)C (configuration not stated),"inconclusive [inhibitor, single point]",–
CCc1ccc(S(=O)(=O)NCc2nc3cccnc3n2Cc2ccccc2Cl)cc1,active: 14.6 µM,–
COc1cccc(-c2ncn(CCc3ccccc3OC)c2C(C)C)c1,active: 5.8 µM,–

SMILES,Potency,"activity change, negative = growth inhibition"
O=C(c1ccc2c(c1)CCCC2)N1CCN(c2nc3ccc(F)cc3s2)CC1,"inconclusive [inhibitor, single point]",–
COc1ccc(NC(=O)c2ccc(Br)c(S(=O)(=O)N3CCOCC3)c2)cc1,"inconclusive [inhibitor, single point]",–
CCOC(=O)c1cnn(-c2ccccc2)c1NC(=O)C(F)(F)C(F)(F)C(F)(F)F,–,inconclusive: -34.6% [inhibitor]
COc1cc(C(=O)Nc2ccc(NC(=O)c3ccccc3Cl)nc2)cc(OC)c1OC,"inconclusive [inhibitor, single point]",–
COc1cc(OC)cc(C(=O)N(Cc2nc(-c3cccc(C)c3)no2)C(C)C)c1,"inconclusive [inhibitor, partial curve]",–
O=C(c1csnn1)N1CCC[C@@]2(CCN(C(c3ccccc3)c3ccccc3)C2)C1,active: 18.4 µM,–
Cc1ccc(NC(=O)c2cnc(SCC(=O)NCC3CCCO3)n(C)c2=O)cc1C (configuration not stated),active: 23.1 µM,–
O=C(c1cccnc1)C1CCCN(Cc2ccc3c(c2)CN(C(=O)c2cn4ccccc4n2)CCO3)C1 (configuration not stated),"inconclusive [inhibitor, single point]",–
CCN(CC)C(=S)SCC(=O)Nc1nc(=O)c2ccccc2s1,inactive,–
CC1(NC(=O)c2ccccc2)CCN(CCc2cccs2)C1=O (configuration not stated),inactive,–
Cc1ccc(N(CC(=O)Nc2ccc3c(c2)OCCO3)S(=O)(=O)c2c(C)noc2C)cc1,"inconclusive [inhibitor, single point]",–
O=C(c1ccccc1)c1ccc(-n2cnnc2)c([N+](=O)[O-])c1,"inconclusive [inhibitor, single point]",–
ClCc1cc2ccccc2nc1Cl,active: 8.2 µM,–
COc1ccc(S(=O)(=O)N2CCOCC2)cc1NC(=O)CN1C(=O)CN(C)C1=O,inactive,–
COc1cc(CN(C)Cc2cc(=O)oc3cc(C)c(Cl)cc23)ccc1OC(F)F,"inconclusive [inhibitor, single point]",–
Cc1ccc2cc(CN(C(=O)c3cccs3)c3ccccc3)c(=O)[nH]c2c1,"inconclusive [inhibitor, partial curve, poor fit]",–
COCCNc1nc(-c2ccccc2)nc2c1oc1ccccc12,"inconclusive [inhibitor, single point]",–
COc1ccc(NC(=O)NNC(=O)c2cc(C3CC3)nc3ccccc23)c(OC)c1,inactive,–
O=C(O)c1ccc(CN2C(=O)c3ccc(Oc4ccc([N+](=O)[O-])cc4)cc3C2=O)cc1,inactive,–
CCc1ccc(C2=Nn3c(nnc3-c3cccs3)SC2)cc1,active: 20.6 µM,–
COc1ccc(Cl)cc1NC(=O)Cn1c(=O)n(CCCC(=O)NCCc2ccc(OC)c(OC)c2)c(=O)c2ccccc21,active: 8.2 µM,–
Cc1ccccc1S(=O)(=O)N1C[C@H]2CON(C)[C@H]2C[C@H]1c1cccc(-c2ccc(C#N)cc2)c1,"inconclusive [inhibitor, single point]",–
Cc1ccc(S(=O)(=O)NCC(=O)N2CCN(c3ccc(F)cc3)CC2)cc1,inactive,–
Cc1cnc(C(=O)NC2CC(C)(C)Cc3c2cnn3-c2cccc(F)c2)cn1 (configuration not stated),"inconclusive [inhibitor, partial curve]",–

SMILES,Potency,"activity change, negative = growth inhibition"
Cc1ccc(C2=NS(=O)(=O)N(C)C(C(=O)N3CCOCC3)=C2)cc1,inactive,–
O=C(NCCC1=CCCCC1)C1CCN(c2nnc(-n3cccc3)s2)CC1,"inconclusive [inhibitor, partial curve]",–
O=C(CCSCc1cccc(F)c1)NCc1ccccc1,inactive,–
Cc1ccc(-c2ccnc3c(Cl)c(C)nn23)cc1,"inconclusive [inhibitor, single point]",–
COC(=O)c1cc(NC2c3ccccc3C(=O)N2c2ccc(Cl)cn2)cc(C(=O)OC)c1 (configuration not stated),"inconclusive [inhibitor, single point]",–
CCCCCCSc1nsc(NC(=O)CCC)n1,"inconclusive [inhibitor, single point]",–
COc1cccc(C2CC(=O)Nc3cc(OC)c(OC)c(OC)c32)c1OC (configuration not stated),"inconclusive [inhibitor, partial curve, poor fit]",–
O=C(C1COc2ccccc2O1)N1CCN(Cc2ccc3c(c2)OCO3)CC1 (configuration not stated),"inconclusive [inhibitor, partial curve, poor fit]",–
COc1cc(/C=N/Nc2nc(C)cc(C)n2)cc(OC)c1OC,inactive,–
COc1ccc(C(C)(O)c2nc(-c3cccc(C(C)C)c3)cs2)cc1 (configuration not stated),"inconclusive [inhibitor, single point]",–
CN(C)CC1(C)Cc2ccsc2C1O (configuration not stated),inactive,–
CCCc1c(C(=O)N2CCN(c3ccccc3OC)CC2)cnn1-c1ccccc1,active: 18.4 µM,–
CC(NC(=O)c1ccc(Cn2c(=O)c3cccn3c3cccnc32)cc1)c1ccccc1 (configuration not stated),"inconclusive [inhibitor, partial curve]",–
O=S(=O)(c1ccccc1)N1CCC[C@@]2(CCN(c3cccc(-c4ccccc4)c3)C2)C1,"inconclusive [inhibitor, single point]",–
CCN1CCN(c2c(S(=O)(=O)c3ccc(Cl)cc3)cnc3ccccc23)CC1,"inconclusive [inhibitor, single point]",–
COc1ccc(NC(=O)c2cc(S(=O)(=O)N3CCCCC3)c[nH]2)cc1,inactive,–
O=C(N/N=C/c1cccc(F)c1)c1c(O)c2ccccc2[nH]c1=O,active: 2.31 µM,–
O=c1c2ccccc2nc2n1CC/C2=C\N1CCN(c2ccc([N+](=O)[O-])cc2)CC1,inactive,–
Cn1ncc([N+](=O)[O-])c1C(=O)Nc1nc2ccccc2n1CCN1CCCCC1,"inconclusive [inhibitor, single point]",–
CCOc1cc(NC(=S)Nc2ccc(Cl)cc2)c(OCC)cc1NC(C)=O,"inconclusive [inhibitor, single point]",–
Cc1ccc(N2Cc3ccccc3C2=O)cc1,"inconclusive [inhibitor, single point]",–
OC(c1ccccc1)C(CN1CCOCC1)c1ccccc1 (configuration not stated),"inconclusive [inhibitor, single point]",–
COCCCNC(=O)c1c(-c2ccccc2)noc1C,inactive,–
OC[C@@H]1CN(Cc2cccc(C(F)(F)F)c2)C[C@H](n2cnc3c(NCc4ccncc4)ncnc32)O1,"inconclusive [inhibitor, single point]",–
